About 65 (0.1%) of roughly 45,000 compounds were called active. The call rests on the fitted dose curve; in most records, active means well fitted activation curve with a large enough effect; inconclusive means small, poorly fitted or top-dose-only effect; inactive means no such curve, though single readings can be large or run the other way. Some of the results follow.
molecular target: Galactocerebrosidase (Homo sapiens) (UniProt P54803); test: A Novel Cell-Based Assay to Identify Small Molecules for B -Galactocerebrosidase; settings: 145M-Twi-hGALC-G270D cells (Twitcher mouse brain line with human GALC G270D), HMU-beta-Gal fluorescence, 48 h; series mostly up to 57.5 µM; activation: at the top concentration; further: 0% is about no effect; nearly all actives have a fitted effect of over 65% in size
UniProt P54803, sequence (P54803 whole entry, looked up): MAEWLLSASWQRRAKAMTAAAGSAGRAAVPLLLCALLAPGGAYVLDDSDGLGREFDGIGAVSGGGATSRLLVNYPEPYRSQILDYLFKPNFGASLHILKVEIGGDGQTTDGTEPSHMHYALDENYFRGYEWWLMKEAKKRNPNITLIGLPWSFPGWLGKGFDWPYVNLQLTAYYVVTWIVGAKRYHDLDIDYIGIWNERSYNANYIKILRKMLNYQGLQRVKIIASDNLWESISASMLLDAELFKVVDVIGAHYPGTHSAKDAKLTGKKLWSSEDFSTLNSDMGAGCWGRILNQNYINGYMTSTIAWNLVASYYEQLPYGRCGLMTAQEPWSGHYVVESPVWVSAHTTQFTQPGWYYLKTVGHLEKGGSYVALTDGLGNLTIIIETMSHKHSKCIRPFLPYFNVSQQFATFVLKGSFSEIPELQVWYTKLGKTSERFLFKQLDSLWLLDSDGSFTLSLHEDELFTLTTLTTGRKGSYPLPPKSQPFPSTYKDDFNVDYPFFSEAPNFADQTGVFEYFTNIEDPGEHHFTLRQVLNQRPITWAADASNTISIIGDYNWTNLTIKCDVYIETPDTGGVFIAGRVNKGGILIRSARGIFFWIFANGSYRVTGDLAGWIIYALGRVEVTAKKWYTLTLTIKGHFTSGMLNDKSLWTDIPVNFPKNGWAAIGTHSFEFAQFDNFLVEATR
Outline: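 Live 145M-Twi cells (Twitcher mouse brain-derived, GALC-null) stably expressing human GALC-G270D, with a wild-type GALC line, were compound-treated. Residual GALC activity was then read as fluorescence from 0.1 mM final HMU-β-gal at pH 5.2; higher signal means activation.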

activation, inactive:
CCOc1ccc(S(=O)(=O)c2c(C(=O)c3ccc(C)c(C)c3)cnc3ccccc23)cc1 -17.8%, Cc1ccc(CNC(=O)CCc2nnc3n(C)c(=O)c4sccc4n23)cc1 -3.38%, Cc1ccc(NC(=O)c2sc3nc(-c4ccncc4)ccc3c2N)cc1 -12.4%, COc1cc(NC(=O)C(NS(=O)(=O)c2ccc3c(c2)CCCC(=O)N3)C(C)C)cc(OC)c1 (stereo not given) -1.12%, COC(=O)c1sccc1S(=O)(=O)N(CC(=O)Nc1ccc(C)c(F)c1)c1ccc(C)c(C)c1 4.8%, Cc1ccccc1Cn1c(=O)n(CCc2ccccc2)c(=O)c2sc3ccccc3c21 9.65%, Cc1ccccc1C(=O)Nc1nnc(S(=O)(=O)N(C)c2ccc(Cl)cc2)s1 6.13%, CC(=O)N[C@@H](CC(C)C)C(=O)O -7.6%, CCOC(=O)c1ccc(NC(=O)N2CCOc3ccccc32)cc1 -20%, COCCCNC(=O)C(=O)Nc1c2c(nn1-c1cccc(Cl)c1)CSC2 -12.1%, Cc1cc(Br)ccc1NC(=O)C1CCN(S(=O)(=O)c2cccc3nsnc23)CC1 -2.08%, Cc1ccccc1-c1nnc(CN2CCN(c3ccccn3)CC2)o1 -14.6%, COc1ccc(-c2noc(-c3ccc(N4CCN(C)CC4)c([N+](=O)[O-])c3)n2)cc1OC -3.79%, COc1ccc(-c2oc3ncn4nc(COc5c(C)cccc5C)nc4c3c2-c2ccc(OC)cc2)cc1 -26.9%, Cc1nn(C(=O)c2ccccc2F)c(C)c1S(=O)(=O)N1CCCCCC1 -9.16%, CCCCCSc1nc2sc3c(c2c(=O)n1-c1ccccc1)CCN(C(C)=O)C3 -1.84%, CCOc1ccccc1NC(=O)N1CCc2cc(S(=O)(=O)N3CCC(C)CC3)ccc21 -10.3%, CNC(=O)Cn1cc(S(=O)(=O)Cc2ccccc2F)c2ccccc21 -4.42%, COC(=O)c1c(-c2cccs2)csc1NC(=O)COc1c(C)ccc(C)c1C -19.6%, Cc1cccc(NC(=O)c2sc(-n3nc(C)c(Cc4ccc5c(c4)OCO5)c3C)nc2C)c1C 3.6%, Cc1ccc(Cn2c(SCc3ccc(C(=O)N4CCCCCC4)cc3)nc3ccncc32)cc1 -2.06%, COc1ccccc1NC(=O)c1sc2nc(N3CCOCC3)c3c(c2c1N)CC(C)(C)OC3 -19.4%, Nc1nc(Cl)nc2c1ncn2[C@@H]1O[C@H](CO)[C@@H](O)[C@@H]1F -12.9%, Cn1nnnc1SCCCNCc1ccccc1OCc1ccccc1Cl -13.3%, COc1ccc(-c2noc(CSc3nnc(C)n3-c3ccc(OC)cc3)n2)cc1 -12.6%, Cc1ccc(NC(=O)CSc2ncc3c(n2)-c2ccc(Cl)cc2N(C)S3(=O)=O)cc1F -18.8%, COc1cccc(NC(=O)N2CCN3CCCCC3C2)c1 (stereo not given) -6.61%, CCCOC(=O)CSc1ncnc2sc3c(c12)CCC(C)C3 (stereo not given) -22.1%, COc1ccc(-c2cc(C)no2)cc1S(=O)(=O)NC(C)C -6.41%, COc1ccc(CN2CCc3nc(SCC(=O)Nc4cc(C)cc(C)c4)[nH]c(=O)c3C2)cc1 -12.6%, COc1ccc(-c2noc(Cn3c(=O)c4ccccc4n(CC(=O)Nc4cccc(OC)c4)c3=O)n2)cc1 -12.9%, COc1cc(OC)cc(N2C(=O)N(CC(=O)c3ccc(F)cc3)c3ccccc3S2(=O)=O)c1 -0.6%, Cc1cccc(Cn2c(=O)n(CC3CCC(C(=O)N4CCOCC4)CC3)c(=O)c3sccc32)c1 (stereo not given) -14.7%, CCOC(=O)c1ccc(NC(=O)c2oc(=O)c3ccccc3c2-c2ccccc2)cc1 -8.41%, COc1ccccc1-c1nc2c(c(SCC(=O)Nc3c(C)cc(C)cc3C)n1)Cc1c(CO)cnc(C)c1O2 -21.2%, CCC(=O)N1CCc2cc(S(=O)(=O)CCC(=O)NCc3ccc(C)cc3)ccc21 -6.5%, CCc1cccc(NC(=O)C(Cc2ccccc2)NS(=O)(=O)c2ccc3c(c2)oc(=O)n3C)c1 (stereo not given) -13.8%, CCOC(=O)c1c(NC(=O)c2cc3nc(-c4ccc(OC)cc4)cc(C(F)(F)F)n3n2)sc2c1CCC(C)C2 (stereo not given) -10.1%, CCCCOC(=O)c1ccc(NC(=O)Cn2nnc3sc4c(c3c2=O)CCCC4)cc1 -24%, O=C(NCc1cccs1)c1ccc(Cn2c(SCc3cccc(F)c3)nc3cccnc32)cc1 -7.03%, CCOc1ccc(CCNC(=O)c2ccc(Nc3nc4ccccc4n4nnnc34)cc2)cc1OCC -0.275%, CCc1cccc(NC(=O)c2cc3c(=O)n(Cc4ccc(OC)cc4)ccc3nc2C)c1 -6.99%, CCCSc1nnc2c(n1)OC(c1sccc1C)Nc1ccccc1-2 (stereo not given) -20.6%, Cc1ccc(N2C(=O)N(CC(=O)C(C)(C)C)c3ccccc3S2(=O)=O)cc1C -0.0621%, CCOc1ccc(-c2cc(C(=O)N3CCN(S(=O)(=O)c4cc(Cl)ccc4OC)CC3)[nH]n2)cc1 -5.56%, CC1=C(C(=O)OCC2CCCCC2)C(c2cccc(Cl)c2Cl)CC(=O)N1 (stereo not given) -14%, Cc1ccc(C2CC(=O)Nc3cc4c(cc32)OCCO4)cc1 (stereo not given) -5.59%, CC(=O)N1CCCC1c1nc2ccccc2n1Cc1ccccc1 (stereo not given) -13%, CCOc1ccc(C(=O)c2oc3ccccc3c2NC(=O)Cc2coc3cc(C)cc(C)c23)cc1 -19.9%, CCc1ccc(Cn2c(CNS(=O)(=O)c3ccc(F)c(Cl)c3)nc3cccnc32)cc1 8.42%, Cc1cc2oc(C(=O)N(Cc3ccccc3F)C3CCS(=O)(=O)C3)c(C)c2cc1Cl (stereo not given) -16.9%, CCOC(=O)c1ccc(NC(=O)c2c(N3CCCC3=O)c3cc(OC)ccc3n2C)cc1 -21.3%, Cc1ccc(C)c(N2CCN(C(=O)Cn3ncc4ccsc4c3=O)CC2)c1 -19.6%, Cc1c(Cl)cccc1NC(=O)CN1C(=O)COc2ccc(S(=O)(=O)N3CCOCC3)cc21 -19%, CCc1ccc(N2C(=O)CSC23C(=O)N(Cc2ccc(C)cc2)c2ccccc23)cc1 (stereo not given) -42.3%, CCCC(CCC)C(=O)Nc1cc(-c2cn3cccnc3n2)ccc1OC -2.54%, COc1cc(C(c2c(C)[nH][nH]c2=O)c2c(C)[nH][nH]c2=O)ccc1OC(=O)c1cccc(C)c1 -24.7%, O=C(c1ccc2c(c1)CCCC2)N1CCN(c2nc3c(F)cccc3s2)CC1 -21.2%, CCOC(=O)C1CCCCN1S(=O)(=O)c1csc(C(N)=O)c1 (stereo not given) 18.3%, CCn1cc(C(=O)NCc2ccccc2)c(=O)c2cc(S(=O)(=O)N3CCc4ccccc4C3)ccc21 -9.17%, COc1ccc(Cn2cc(C(=O)c3ccc(C)cc3)c(=O)c3cc(OC)c(OC)cc32)cc1 -9.37%, COc1ccc(S(=O)(=O)c2c(C)c(NS(=O)(=O)c3ccccc3)cc(C)c2O)cc1 -19.2%, Cc1oc(-c2cccc(Cl)c2)nc1CN1CCC(C(=O)NCCCN2CCN(c3ccc(F)cc3)CC2)CC1 -10.8%, O=C(CSc1nc2c(c(=O)[nH]1)CCC2)Nc1ccccc1C(F)(F)F -25.3%, O=C(NCN1CCOCC1)c1cnccn1 -10.8%, Cc1ccccc1Nc1c(-c2ccc(Cl)s2)nc2cccc(C)n12 -1.95%, CN1CC[C@H](c2c(O)cc(O)c3c(=O)cc(-c4ccccc4Cl)oc23)[C@H](O)C1 -8.21%, CN(C)c1ccc(-n2c(CCC(=O)O)ccc2-c2ccccc2)cc1 -1.12%, COc1ccc(C2=NC(c3ccncc3)=Nc3ccc(Br)cc3N2)cc1 -7.97%, COc1ccc(CC(=O)NCc2ccc3c(c2)CCN3C(=O)c2ccccc2)cc1OC -12.8%, Cc1ccc(C2=CC(c3ccccc3F)n3c(nc4ccccc43)N2)cc1C (stereo not given) 16.9%, CCc1cccc(NC(=O)C2CCCN(S(=O)(=O)c3cccs3)C2)c1 (stereo not given) -4.26%, CC(C)(C)c1ccc(OCCn2cc(C(=O)c3ccco3)c3ccccc32)cc1 -16.1%, COc1ccccc1N1CCN(C(CNC(=O)C(=O)NCc2ccc(C)cc2)c2cccnc2)CC1 (stereo not given) -6.72%, CCOC(=O)C1=C(CN2CCCCC2)NC(=O)NC1c1cc(C)ccc1C (stereo not given) -11.4%, CCn1cc(C(=O)N2CCN(c3ccc(F)cc3)CC2)c(=O)c2cc(S(=O)(=O)N(C)C3CCCCC3)ccc21 -9.57%, CNC(=O)CN1C(=O)c2cccnc2Sc2ccccc21 -9.26%, CC(C)CC1N=C2c3ccccc3N=C(SCC(=O)NCCc3ccc(Cl)cc3)N2C1=O (stereo not given) -9.06%, CCNC(=O)c1cnc2c(-c3ccccc3)c(C)nn2c1C -10.5%, COc1ccc(-c2nc3cc(C)ccn3c2NC(=O)c2ccc(C)c(C)c2)cc1 -6.13%, CC(C)CCn1c(=O)c2sccc2n2c(CCCC(=O)NC(C)C)nnc12 5.51%, Cc1cccc(-c2nc3c(c(SCc4ccccc4Cl)n2)Cc2c(CO)cnc(C)c2O3)c1 -10.4%, COc1cc(Cl)c(C)cc1NC(=O)c1cc2c(Cl)nc3ccc(C)cc3c2s1 -16%, CCOc1ccccc1NC(=O)c1c(NC(=O)C(C)Oc2ccc(Cl)cc2)sc2c1CCCCC2 (stereo not given) -10.2%, Cc1cccc(OCC(=O)Nc2ccccc2OCc2cc(=O)n3ccccc3n2)c1 -17.2%, COc1cccc(CNC(=O)CN(C)S(=O)(=O)c2ccc3[nH]c4c(c3c2)CCCC4)c1 -14.3%, COc1ccc(-n2c(=O)c3c4c(sc3n(Cc3ccccc3Cl)c2=O)CCC4)c(OC)c1 -9.3%, COc1ccccc1CCNC(=O)c1ccc2c(c1)c(C)c(C)n2Cc1ccc(Cl)cc1 -7.91%, O=C(O)Cn1c(=O)n(Cc2ccc(Br)cc2F)c(=O)c2ccc(Cl)cc21 -11.3%, O=C(NCc1ccccc1Cl)C1CCCN(C(=O)c2cnn(-c3ccccc3)c2-n2cccc2)C1 (stereo not given) -6.18%, CCOc1ccccc1CNC(=O)C1CCCN(c2ncnc3onc(-c4ccc(F)cc4)c23)C1 (stereo not given) -12.3%, CCCCOc1ccc(CN2C(=O)C(=O)c3cc(Br)cc(C)c32)cc1OC -11.9%, Cc1cccc(C)c1-n1ncc(C(=O)Nc2ccc3c(c2)OCO3)c1C1CCN(C(=O)OC(C)(C)C)CC1 -20%, COc1cccc(-c2cc(C(F)(F)F)nc(NCCc3ccccc3)n2)c1 -11.1%, Cc1ccc(CN2CCc3nc(N4CCN(c5ccccc5F)CC4)ncc3C2)cc1C -14.7%

Source: PubChem BioAssay AID1159614 (National Center for Advancing Translational Sciences (NCATS), 2016)
